# Measured values reported in PubChem BioAssay (NCI).
# More than one record can exist for a structure, and the calls need not agree.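 In brief: 96-well plates, 48 h treatment, single concentration, percent growth endpoint.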 Certain results were filed several times, with different values. The list is limited to them. How the source made its calls: active means growth percent below 10; inactive means the rest. An entry can have further records. This drug was run again and again over the years, at the concentration stated with the values; one value stands for one run. Signs of the kind (2×) stand for listed records that agree.
# Key:
# NCI-H23 lung = assay: NCI-60 one-dose screen, 48 h (100 = growth as untreated, 0 = no growth, -100 = all killed)
# NCI-H226 lung = assay: as above; details: 0.25 µM
smiles,measurement,setting,value
COc1cccc2c1C(=O)c1c(O)c3c(c(O)c1C2=O)C[C@@](O)(C(=O)CO)C[C@@H]3OC1CC(N)C(O)C(C)O1 (stereo not given in full),growth,"NCI-H23 lung; 0.25 µM, runs of 2021","inactive: 29.4, 36.1, 33.9, 38.5, 53, 37.5 (2×), 34.3, 34.9, 34.6, 33.1, 32.1, 39.4, 26.1, 29.2, 24.8, 22.8, 26.4, 24.9, 20.6, 26.6 (2×), 27.9, 24.6, 26.3, 30, 27.7, 34.4, 31.9, 36.4, 24, 23, 20, 25.1%"
same,growth,"NCI-H23 lung; 0.25 µM, runs of 2022","active: -11.5, -1.92, -32.7, 2.31% and inactive: 16.1, 24.7, 21, 14.9, 27.5, 23.6, 35.6, 29, 34.6 (2×), 15.6, 14.1 (2×), 15.4, 40.9, 39.6, 24.8, 39.2, 74.4, 15, 13.9%"
same,growth,"NCI-H23 lung; 25 µM, runs of 1991","active: -87.9, -84.5, -88.2, -58.7, -99.4, -94.6, -67, -76.7, -90.7, -22.3, -91.7, -70.9, -97.8, -85.9, -98.2, -95.2, -94.8%"
same,growth,"NCI-H23 lung; 25 µM, runs of 1992","active: -90.4, -77.8, -85.8, -86.4, -82.1, -97.2, -93.9, -89.5, -84.9, -87 (4×), -58.6, -63.7, -74.1, -86.8, -72.5, -89.2, -80, -91.6, -98.2 (2×), -75.2 (2×), -72.7, -65, -79.7, -50.6, -82.9 (2×), -47.4, -63.6, -41.4, -83.3, -15.6, -90.1 (2×), -95.4 (2×), -78.6, -96.4 (2×), -97.3, -98.1 (2×), -95.5, -96.7 (2×), -83.2, -73.3, -80.5, -73, -86.1, -85.7, -86.2, -95.2, -85.3, -77.7, -93.2, -92.5, -85.2 (4×), -96.1 (2×), -90.9 (2×), -89.9, -84.6, -82.4, -71.1, -98.4, -96.2, -78.2, -73.7, -91.4, -81.5, -72.1, -82.6, -71.2, -66.6, -92.4, -54.2, -100, -80.8, -45.1, -93.4, -29.4, -78.9, -94.9 (2×), -55.2, -84.8, -57.9, -59.8, -83.1, -90.6, -92, -94.2, -90.7, -41.1, -53.7, -91.1 (2×), -81.7, -94.5, -35.4, -88.2, -89.3, -66.2, -86, -97.5, -83.6, -17, -49.1, -43.6, -68.1, -89.6, -93, -90, -54, -45.9, -80.9, -94.6%"
same,growth,"NCI-H23 lung; 25 µM, runs of 1993","active: -84.3, -80.1, -33.5, -67.7, -94.9, -90.5, 4.33, -46.3, -56.3, -97.5, -94.3, -82, -82.7, -95.5, -96.2 (2×), -64.4, -47.8 (2×), -44.1, -25 (2×), -99.4, -90.1, -41.6, -61.9, -55.1, -40, -75.6, -43.5, -24.3, -51.3, -90, -49.9 (2×), -86.6, -96.8, -86.4, -73.3, -54.6, -71.1, -39.2, -70.1, -64.8, -91.4, -39.7, -69.9, -56.5% and inactive: 109%"
same,growth,"NCI-H23 lung; 25 µM, runs of 1994","active: -65.9, 0.623, -49.9, -55.1, -94.9, -99.7, -60.2, -70.3, -84.6, -97.2, -41.9, -90, -64.3, -79.7, -51.3, -52.6, -96.3, -31.9, -16, -51.2, -63.7, -37.3, -67.8, -94.8, -13.3, -36.7, -27.2, -89.4, 5.32, -67.7, -97.3, -61.6, 1.56, -6.17%"
same,growth,"NCI-H23 lung; 25 µM, runs of 1995","active: -72.1, -83.8, -37.5, -45.9, -62.8, -66.7, -96.1, -43.4, -75.1, -56.5, -63.8, -55.8, -62.1, -84.3, -42.1, -40.7, -68.9, -78, -71.9 (2×), -100, -95.9, -73, -70.2, -53.2, -77.8, -97.6, -71.5, -54.9, -72.5, -72.6, -49.6, -82.7, -90.2, -91.8, -71.3, -74.8, -64.3, -69.6, -93.1%"
same,growth,"NCI-H23 lung; 25 µM, runs of 1996","active: -43.3, -74.6, -79.1, -52.4, -73.8, -90.4, -62.4, -74.8, -76, -59.5, -66.2, -94.6, -93.4, -67.4, -77, -76.8, -97.7, -75.6, -39.6, 5.09, -61.9, -97.6, -77.9, 3.67, -85.2, -58, -65.9, -54.6, -53.5, -46.4, -93.9, -87.2, -78.4, -80.4, -82, -67.1, -47.4, -98.2, -96.3, -59.8, -67, -6.17, -79.3, -2.15, -69.5, -50.4, -72.4, -65.7, -78.7, -79.8, -86, -92.8, -64.4, -78.2, -92.6% and inactive: 113%"
same,growth,"NCI-H23 lung; 25 µM, runs of 1997","active: -71.1, -77.7, -84, -92.5, -61.6, -76.9, -21, -73.3, -78.3, -48.9, -90.3, -86 (2×), -55.3, -83.2, -49.3, -66, -55.8, -66.4, -52.1, -87.8, -79.7 (2×), -64.7 (2×), -92.2, 0.568, -71.8, -51.3, -51.5, -79.2, -68.1 (2×), -78.1, -85.1, -71.6 (2×), -73.7, -88.4 (2×), -7.29, -72.8, -82.9%"
same,growth,"NCI-H23 lung; 25 µM, runs of 1998","active: -40.8, -83.9, -7.53, -84.4, -65.2, -17.2, -30.6, -21.7, -71.6, -57.5, -65.6, -72.2 (2×), -20.4, -32.7, -58.6, -81, -46.1, -45.3, -68.3, -63.2, -48.3, -12.2, -69.9, -49.8%"
same,growth,"NCI-H23 lung; 25 µM, runs of 1999","active: -69.4, -83.8, -53.4, -69, -100, -70, -95.5, -75.9, 0.0084, -15.4, -25.5, 4.41, -56.3, -1.43, 7.91% and inactive: 14.1%"
same,growth,"NCI-H23 lung; 25 µM, runs of 2000","active: -100% (2×), -22%, -78.1%"
same,growth,NCI-H226 lung; runs of 2006,"active: -21.1%, -1.96%"
same,growth,NCI-H226 lung; runs of 2007,"active: 1.24, -2.96, -2.75, -1, -8.13, -9.41, 8.92, -4.28, 9.42, 6.15, -47.8, 9.3, -9.45% and inactive: 19.5, 20, 17.1 (2×), 26.4, 15.1, 19.2, 21.4, 17.9, 14.5, 28.9, 43.5, 34.5, 41.9, 12.8 (2×), 36.9, 50.5, 20.2, 17.7, 17.2, 41, 23.6, 17.5, 21.3, 31.7, 20.4, 14.8, 75.5, 35.6%"
same,growth,NCI-H226 lung; runs of 2008,"inactive: 44.1 (2×), 32.2, 39.6, 31.9, 32, 39.5, 45.5, 39.2, 46.4, 48, 48.1, 49.9, 55.5, 33.1, 35.8, 31.8, 100, 32.7, 30.5, 38.1, 26.8, 10.2 (2×), 29.6, 23.5% and active: 8.77, -2.91, -22.7, -32.3, -43.2, -46.4, -44.9, -30.2, -36.6, -47.9, -6.66, -39.5, -16.2, 7.32, -59.1, 7.15, -52.2, 6.83, -32.9, -24.8, -51.6, -9.34, -9.97, 8.33, -9.45, -13.1, 7.72, -2.5, 2.11, -15.8, -10%"
